# This is one part of the list.
# Columns and labels:
# Test in all cases: glycan array binding signal (z-score within array); higher = stronger binding
# Conditions in all cases: glycan notation: IUPAC condensed, linker removed; mutation: R186S
# [1] = target: Neu5Ac(a2-3)Gal(b1-3)GlcNAc(b1-3)Gal(b1-3)GlcNAc
# How it was run: (§1)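 The binding signal is a Z-score computed within each array and averaged over linkers. Arrays of the same protein sequence at different concentrations or buffers were also averaged together. Data originate from 3228 arrays in the Consortium for Functional Glycomics database, kept only where the protein sequence was available.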
# [2] = target: Neu5Ac(a2-3)Gal(b1-3)GlcNAc(b1-3)Gal(b1-4)GlcNAc
# How it was run: as §1
# [3] = target: Neu5Ac(a2-3)Gal(b1-3)GlcNAc(b1-3)GalNAc
# How it was run: as §1
# [4] = target: Neu5Ac(a2-3)Gal(b1-3)GlcNAc6S
# How it was run: as §1
# [5] = target: Neu5Ac(a2-3)Gal(b1-3)[Fuc(a1-4)]GlcNAc
# How it was run: as §1
# [6] = target: Neu5Ac(a2-3)Gal(b1-3)[Fuc(a1-4)]GlcNAc(b1-3)Gal(b1-3)[Fuc(a1-4)]GlcNAc
# How it was run: as §1
# [7] = target: Neu5Ac(a2-3)Gal(b1-3)[Fuc(a1-4)]GlcNAc(b1-3)Gal(b1-4)[Fuc(a1-3)]GlcNAc
# How it was run: as §1
# [8] = target: Neu5Ac(a2-3)Gal(b1-3)[Neu5Ac(a2-3)Gal(b1-4)]GlcNAc
# How it was run: as §1
# [9] = target: Neu5Ac(a2-3)Gal(b1-3)[Neu5Ac(a2-6)]GalNAc
# How it was run: as §1
# Neu5Ac(a2-3)Gal(b1-4)Glc = target: Neu5Ac(a2-3)Gal(b1-4)Glc
# How it was run: as §1
# [10] = target: Neu5Ac(a2-3)Gal(b1-4)GlcNAc
# How it was run: as §1
# [11] = target: Neu5Ac(a2-3)Gal(b1-4)GlcNAc(b1-2)Man(a1-3)[GlcNAc(b1-2)Man(b1-4)GlcNAc(b1-2)Man(a1-6)]Man(b1-4)GlcNAc(b1-4)GlcNAc
# How it was run: as §1
# [12] = target: Neu5Ac(a2-3)Gal(b1-4)GlcNAc(b1-2)Man(a1-3)[Neu5Ac(a2-6)Gal(b1-4)GlcNAc(b1-2)Man(a1-6)]Man(b1-4)GlcNAc(b1-4)GlcNAc
# How it was run: as §1
# [13] = target: Neu5Ac(a2-3)Gal(b1-4)GlcNAc(b1-3)Gal(b1-3)GlcNAc
# How it was run: as §1
# [14] = target: Neu5Ac(a2-3)Gal(b1-4)GlcNAc(b1-3)Gal(b1-4)GlcNAc
# How it was run: as §1
# [15] = target: Neu5Ac(a2-3)Gal(b1-4)GlcNAc(b1-3)Gal(b1-4)GlcNAc(b1-3)Gal(b1-4)GlcNAc
# How it was run: as §1
# [16] = target: Neu5Ac(a2-3)Gal(b1-4)GlcNAc(b1-3)Gal(b1-4)[Fuc(a1-3)]GlcNAc
# How it was run: as §1
# [17] = target: Neu5Ac(a2-3)Gal(b1-4)GlcNAc(b1-3)GalNAc
# How it was run: as §1
# [18] = target: Neu5Ac(a2-3)Gal(b1-4)GlcNAc(b1-6)[Gal(b1-3)]GalNAc
# How it was run: as §1
# [19] = target: Neu5Ac(a2-3)Gal(b1-4)GlcNAc(b1-6)[Neu5Ac(a2-3)Gal(b1-3)]GalNAc
# How it was run: as §1
# [20] = target: Neu5Ac(a2-3)Gal(b1-4)GlcNAc6S
# How it was run: as §1
# [21] = target: Neu5Ac(a2-3)Gal(b1-4)[Fuc(a1-3)]GlcNAc
# How it was run: as §1
# [22] = target: Neu5Ac(a2-3)Gal(b1-4)[Fuc(a1-3)]GlcNAc(b1-3)Gal
# How it was run: as §1
# [23] = target: Neu5Ac(a2-3)Gal(b1-4)[Fuc(a1-3)]GlcNAc(b1-3)Gal(b1-4)GlcNAc
# How it was run: as §1
# [24] = target: Neu5Ac(a2-3)Gal(b1-4)[Fuc(a1-3)]GlcNAc(b1-3)Gal(b1-4)[Fuc(a1-3)]GlcNAc(b1-3)Gal(b1-4)[Fuc(a1-3)]GlcNAc
# How it was run: as §1
# [25] = target: Neu5Ac(a2-3)Gal(b1-4)[Fuc(a1-3)]GlcNAc(b1-3)GalNAc
# How it was run: as §1
# [26] = target: Neu5Ac(a2-3)Gal(b1-4)[Fuc(a1-3)]GlcNAc(b1-6)[Gal(b1-3)]GalNAc
# How it was run: as §1
# [27] = target: Neu5Ac(a2-3)Gal(b1-4)[Fuc(a1-3)]GlcNAc(b1-6)[Neu5Ac(a2-3)Gal(b1-3)]GalNAc
# How it was run: as §1
# [28] = target: Neu5Ac(a2-3)Gal(b1-4)[Fuc(a1-3)]GlcNAc6S
# How it was run: as §1
# [29] = target: Neu5Ac(a2-3)Gal6S(b1-4)GlcNAc
# How it was run: as §1
# [30] = target: Neu5Ac(a2-3)Gal6S(b1-4)[Fuc(a1-3)]GlcNAc
# How it was run: as §1
# Neu5Ac(a2-3)GalNAc = target: Neu5Ac(a2-3)GalNAc
# How it was run: as §1
# [31] = target: Neu5Ac(a2-3)GalNAc(b1-4)GlcNAc
# How it was run: as §1
# [32] = target: Neu5Ac(a2-3)[GalNAc(b1-4)]Gal(b1-4)Glc
# How it was run: as §1
# [33] = target: Neu5Ac(a2-3)[GalNAc(b1-4)]Gal(b1-4)GlcNAc
# How it was run: as §1
# [34] = target: Neu5Ac(a2-3)[GalNAc(b1-4)]Gal(b1-4)GlcNAc(b1-3)GalNAc
# How it was run: as §1
# [35] = target: Neu5Ac(a2-3)[Neu5Ac(a2-6)]GalNAc
# How it was run: as §1
# Neu5Ac(a2-6)Gal = target: Neu5Ac(a2-6)Gal
# How it was run: as §1
# Neu5Ac(a2-6)Gal(b1-4)Glc = target: Neu5Ac(a2-6)Gal(b1-4)Glc
# How it was run: as §1
# [36] = target: Neu5Ac(a2-6)Gal(b1-4)GlcNAc
# How it was run: as §1
binder,measurement,setting,value
"Gal 3 (Homo sapiens), P17931 (protein) MADNFSLHDALSGSGNPNPQGWPGAWGNQPAGAGGYPGASYPGAYPGQAPPGAYPGQAPPGAYHGAPGAYPGAPAPGVYPGPPSGPGAYPSSGQPSAPGAYPATGPYGAPAGPLIVPYNLPLPGGVVPRMLITILGTVKPNANILDFQRGNDVAFHFNPRFNENNRRVIVCNTKLDNNWGREESQSVFPFESGKPFKIQVLVEPDHFKVAVNDAHLLQYNHRVKKLNEISKLGISGDIDLTSASYTMI",glycan array binding signal (z-score),[1],-0.068
same,glycan array binding signal (z-score),[2],-0.069
same,glycan array binding signal (z-score),[3],-0.085
same,glycan array binding signal (z-score),[4],-0.09
same,glycan array binding signal (z-score),[5],-0.081
same,glycan array binding signal (z-score),[6],-0.045
same,glycan array binding signal (z-score),[7],-0.082
same,glycan array binding signal (z-score),[8],-0.076
same,glycan array binding signal (z-score),[9],-0.054
same,glycan array binding signal (z-score),Neu5Ac(a2-3)Gal(b1-4)Glc,-0.06
same,glycan array binding signal (z-score),[10],-0.058
same,glycan array binding signal (z-score),[11],-0.063
same,glycan array binding signal (z-score),[12],-0.027
same,glycan array binding signal (z-score),[13],-0.076
same,glycan array binding signal (z-score),[14],-0.071
same,glycan array binding signal (z-score),[15],-0.046
same,glycan array binding signal (z-score),[16],-0.104
same,glycan array binding signal (z-score),[17],-0.038
same,glycan array binding signal (z-score),[18],-0.094
same,glycan array binding signal (z-score),[19],-0.051
same,glycan array binding signal (z-score),[20],-0.006
same,glycan array binding signal (z-score),[21],-0.059
same,glycan array binding signal (z-score),[22],-0.065
same,glycan array binding signal (z-score),[23],-0.014
same,glycan array binding signal (z-score),[24],-0.095
same,glycan array binding signal (z-score),[25],0.182
same,glycan array binding signal (z-score),[26],-0.033
same,glycan array binding signal (z-score),[27],-0.027
same,glycan array binding signal (z-score),[28],-0.075
same,glycan array binding signal (z-score),[29],-0.05
same,glycan array binding signal (z-score),[30],-0.086
same,glycan array binding signal (z-score),Neu5Ac(a2-3)GalNAc,-0.069
same,glycan array binding signal (z-score),[31],-0.062
same,glycan array binding signal (z-score),[32],-0.029
same,glycan array binding signal (z-score),[33],-0.082
same,glycan array binding signal (z-score),[34],-0.078
same,glycan array binding signal (z-score),[35],-0.068
same,glycan array binding signal (z-score),Neu5Ac(a2-6)Gal,-0.036
same,glycan array binding signal (z-score),Neu5Ac(a2-6)Gal(b1-4)Glc,-0.055
same,glycan array binding signal (z-score),[36],-0.065

# From the supplement of paper PMC8728848
